Test results as given in PubChem BioAssay (Tox21).
Inconclusive means that the source gave no clear call. Such entries were picked first, then a sample of the others. For part of these data: Potencies beside an inconclusive call are fits to weak or partial responses and may not hold up. Calls of active or inactive are those of the source. Unless noted, the call rests on the fitted dose curve; in most records, active means well fitted curve in the direction sought with a large enough effect in the repeat runs; inconclusive means weak or mixed curves; inactive means no such curve, though single readings can be large; an effect the other way counts as inactive or inconclusive.

Tests used:
[1] = qHTS assay for small molecule agonists of the antioxidant response element (ARE) signaling pathway (AID 743202; active means well fitted activation curve with a large enough effect in the signal ratio in the repeat runs, not every such curve was filed as active; inconclusive means weak or mixed curves, or effect the other way; inactive means no such curve, though single readings can be large or run the other way; the % refers to the signal ratio; further: on the % scale 0 is the no-effect control and ±100 the full control effect); conditions: HepG2 ARE-bla reporter, beta-lactamase FRET, 16 h; activation: at 73.3 µM (top of the series) unless noted
Outline: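 HepG2 ARE-bla cells; 16 h treatment at 37 C; FRET-based beta-lactamase fluorescence read after 2 h substrate incubation at room temperature.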

[2] = target: Peroxisome proliferator-activated receptor delta (Homo sapiens) (UniProt Q03181); assay: qHTS assay to identify small molecule antagonists of the peroxisome proliferator-activated receptor delta (PPARd) signaling pathway (AID 743215; active means well fitted inhibition curve with a large enough effect in the signal ratio in the repeat runs, not every such curve was filed as active; inconclusive means weak or mixed curves, or effect the other way; inactive means no such curve, though single readings can be large or run the other way; the % refers to the signal ratio;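 further: cells stimulated with agonist L165041 at 300 nM final during compound exposure; on the % scale 0 is the no-effect control and ±100 the full control effect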); conditions: HEK293H PPARd-UAS-bla, beta-lactamase FRET ratio, antagonist, 17 h; ratio activity, negative = inhibition: at 62 µM (top of the series) unless noted
UniProt Q03181, sequence (Q03181 whole entry, looked up): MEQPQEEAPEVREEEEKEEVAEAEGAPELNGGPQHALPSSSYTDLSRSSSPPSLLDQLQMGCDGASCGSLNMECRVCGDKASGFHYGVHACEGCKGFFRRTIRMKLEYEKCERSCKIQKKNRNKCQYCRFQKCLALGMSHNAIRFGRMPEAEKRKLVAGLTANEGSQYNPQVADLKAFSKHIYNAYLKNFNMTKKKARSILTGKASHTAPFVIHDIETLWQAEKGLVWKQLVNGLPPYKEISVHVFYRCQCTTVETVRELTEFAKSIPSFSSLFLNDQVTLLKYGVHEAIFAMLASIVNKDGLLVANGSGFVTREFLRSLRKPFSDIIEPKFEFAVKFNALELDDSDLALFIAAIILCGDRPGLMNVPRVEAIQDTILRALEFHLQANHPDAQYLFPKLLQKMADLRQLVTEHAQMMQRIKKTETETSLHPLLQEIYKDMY
Outline: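 Screen format: qHTS, antagonist mode. HEK293H PPARd-bla cells received compound and 300 nM L165041 (final), 17 h, 37 C. Beta-lactamase detected via FRET substrate fluorescence, 2 h, room temperature.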

[3] = qHTS assay to identify small molecule agonists of the farnesoid-X-receptor (FXR) signaling pathway - cell viability counter screen (AID 743218); conditions: FXR-bla HEK293T viability, CellTiter-Glo luminescence, 16 h; viability change, negative = cytotoxic: at 62.6 µM (top of the series) unless noted; further: nearly all actives have a fitted effect of over 45% in size; further: potency means the concentration at half of the fitted maximal effect
Outline: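 Same-well cytotoxicity check on FXR-UAS-bla HEK 293T cells: 5 h attachment, 16 h compound at 37 C, CellTiter-Glo luminescence read at room temperature after 30 min.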

[4] = target: Vitamin D3 receptor (Homo sapiens) (UniProt P11473); assay: qHTS assay to identify small molecule antagonists of the vitamin D receptor (VDR) signaling pathway (AID 743223; active means well fitted inhibition curve with a large enough effect in the signal ratio in the repeat runs, not every such curve was filed as active; inconclusive means weak or mixed curves, or effect the other way; inactive means no such curve, though single readings can be large or run the other way; the % refers to the signal ratio; further: on the % scale 0 is the no-effect control and ±100 the full control effect); conditions: VDR-UAS-bla HEK293T, beta-lactamase FRET ratio, 16 h; activity change, negative = inhibition: at 61 µM (top of the series) unless noted
UniProt P11473, sequence (P11473 whole entry, looked up): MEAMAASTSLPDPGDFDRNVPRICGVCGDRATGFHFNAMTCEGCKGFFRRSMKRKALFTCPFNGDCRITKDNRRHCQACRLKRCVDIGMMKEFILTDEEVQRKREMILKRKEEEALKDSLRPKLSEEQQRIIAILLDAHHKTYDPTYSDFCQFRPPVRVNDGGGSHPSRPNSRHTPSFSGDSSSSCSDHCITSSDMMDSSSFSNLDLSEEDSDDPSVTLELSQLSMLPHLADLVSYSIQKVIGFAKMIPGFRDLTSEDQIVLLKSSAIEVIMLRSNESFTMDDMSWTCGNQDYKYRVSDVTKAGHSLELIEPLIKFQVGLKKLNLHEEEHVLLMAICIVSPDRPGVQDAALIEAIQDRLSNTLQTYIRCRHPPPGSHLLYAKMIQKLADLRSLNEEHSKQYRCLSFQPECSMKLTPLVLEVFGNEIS
Outline: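 Cells carrying a VDR-driven beta-lactamase reporter (VDR-bla) were co-treated with compound and 3 nM final 1alpha,25-dihydroxyvitamin D3 for 16 h at 37C; reporter activity was measured as FRET substrate fluorescence after 2 h at room temperature.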

[5] = qHTS assay to identify small molecule antagonists of the vitamin D receptor (VDR) signaling pathway - cell viability counter screen (AID 743225); conditions: VDR-bla HEK293T viability, CellTiter-Glo luminescence, 16 h; viability change, negative = cytotoxic: at 61 µM (top of the series) unless noted; further: potency means the concentration at half of the fitted maximal effect; nearly all actives have a fitted effect of over 50% in size
Outline: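 HEK293T VDR-bla; cpd + 1a,25-(OH)2D3 3 nM final, 16 h 37C/5% CO2; B/G FRET substrate 2 h RT; then CellTiter-Glo 30 min RT, luminescence.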

[6] = qHTS assay to identify small molecule agonists of the AP-1 signaling pathway (AID 1159526; calls by dose curve; further: potency means the concentration at half of the fitted maximal effect); conditions: ME-180 (cervical carcinoma) AP-1-bla reporter, beta-lactamase FRET ratio, 5 h; activation: at 76.8 µM (top of the series) unless noted
[7] = qHTS assay to identify small molecule antagonists of the peroxisome proliferator-activated receptor delta (PPARd) signaling pathway - cell viability counter screen (AID 743213); conditions: PPARd-bla HEK293H viability, CellTiter-Glo luminescence, 17 h; viability change, negative = cytotoxic: at 62 µM (top of the series) unless noted; further: nearly all actives have a fitted effect of over 50% in size; further: potency means the concentration at half of the fitted maximal effect
Outline: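 Cytotoxicity counter screen: CellTiter-Glo luminescence read 30 min after addition, in the same wells as the reporter assay. There, PPARd UAS-bla HEK293H cells (3000/well) were treated 17 h at 37 C with compound and 300 nM L165041.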

[8] = target: Bile acid receptor (Homo sapiens) (UniProt Q96RI1); assay: qHTS assay to identify small molecule antagonists of the farnesoid-X-receptor (FXR) signaling pathway (AID 743217; active means well fitted inhibition curve with a large enough effect in the signal ratio in the repeat runs, not every such curve was filed as active; inconclusive means weak or mixed curves, or effect the other way; inactive means no such curve, though single readings can be large or run the other way; the % refers to the signal ratio; further: on the % scale 0 is the no-effect control and ±100 the full control effect); conditions: HEK293T FXR-UAS-bla, beta-lactamase ratio, CDCA-stimulated, 16 h; activity change, negative = inhibition: at 62.6 µM (top of the series) unless noted
UniProt Q96RI1, sequence (Q96RI1 whole entry, looked up): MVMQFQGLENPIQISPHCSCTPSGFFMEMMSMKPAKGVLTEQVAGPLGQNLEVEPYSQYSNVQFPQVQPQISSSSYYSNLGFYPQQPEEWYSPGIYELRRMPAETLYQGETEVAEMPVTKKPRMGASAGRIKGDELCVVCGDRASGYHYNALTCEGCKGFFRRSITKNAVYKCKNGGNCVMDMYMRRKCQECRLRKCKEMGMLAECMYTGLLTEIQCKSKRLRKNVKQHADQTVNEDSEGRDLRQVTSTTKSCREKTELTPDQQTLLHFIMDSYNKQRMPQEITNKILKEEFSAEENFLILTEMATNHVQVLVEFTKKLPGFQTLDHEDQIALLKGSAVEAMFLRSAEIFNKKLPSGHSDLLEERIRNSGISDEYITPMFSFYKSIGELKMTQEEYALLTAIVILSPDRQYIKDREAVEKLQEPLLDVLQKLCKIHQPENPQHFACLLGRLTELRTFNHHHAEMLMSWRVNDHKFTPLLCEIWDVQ
Outline: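 Quantitative HTS, beta-lactamase reporter format: FXR-UAS-bla HEK 293T cells co-treated 16 h at 37 °C with compounds and 50 uM final chenodeoxycholic acid, then read by B/G FRET fluorescence.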

[9] = target: Vitamin D3 receptor (Homo sapiens) (UniProt P11473); assay: qHTS assay to identify small molecule agonists of the vitamin D receptor (VDR) signaling pathway (AID 743222; calls by dose curve; further: potency means the concentration at half of the fitted maximal effect); conditions: HEK293T VDR-UAS-bla, beta-lactamase FRET ratio, 16 h; activation: at 63.5 µM (top of the series) unless noted
Outline: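 Using LiveBLAzer B/G FRET detection, agonism was scored in VDR-bla cells exposed overnight (16 h, 37C) to DMSO-dissolved compounds; substrate incubation was 2 h at room temperature.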

[10] = qHTS assay to identify small molecule antagonists of the farnesoid-X-receptor (FXR) signaling pathway - cell viability counter screen (AID 743221; active means well fitted cell-killing curve with a large enough effect in the repeat runs, not every such curve was filed as active; inconclusive means weak or mixed curves, or effect the other way; inactive means no such curve, though single readings can be large or run the other way; further: on the % scale 0 is the no-effect control and ±100 the full control effect; nearly all actives have a fitted effect of over 50% in size); conditions: FXR-bla HEK293T viability, CellTiter-Glo luminescence, 16 h; activity change, negative = cytotoxicity: at 62.6 µM (top of the series) unless noted
Outline: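 Multiplexed counter screen: viability of FXR-bla HEK 293T cells under agonist stimulation by chenodeoxycholic acid (50 uM, final) and test compound for 16 h at 37 C, measured by CellTiter-Glo luminescence in the reporter wells.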

[11] = qHTS assay to identify small molecule agonists of the vitamin D receptor (VDR) signaling pathway - cell viability counter screen (AID 743224); conditions: VDR-bla HEK293T viability, CellTiter-Glo luminescence, 16 h; activity change, negative = cytotoxicity: at 62.6 µM (top of the series); further: potency means the concentration at half of the fitted maximal effect; nearly all actives have a fitted effect of over 50% in size
Outline: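 Counter screen for cytotoxicity: VDR-bla cells at 2,000 cells/well, 16 h compound exposure, then CellTiter-Glo luminescence after the beta-lactamase measurement.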

[12] = target: Bile acid receptor (Homo sapiens) (UniProt Q96RI1); assay: qHTS assay to identify small molecule agonists of the farnesoid-X-receptor (FXR) signaling pathway (AID 743220; active means well fitted activation curve with a large enough effect in the signal ratio in the repeat runs, not every such curve was filed as active; inconclusive means weak or mixed curves, or effect the other way; the % refers to the signal ratio; further: on the % scale 0 is the no-effect control and ±100 the full control effect); conditions: HEK293T FXR-UAS-bla, beta-lactamase FRET ratio, 16 h; activation: at 62.6 µM (top of the series)
Outline: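 FXR-UAS-bla HEK 293T cells carrying a UAS-driven beta-lactamase reporter were plated for 5 h at 37C/5% CO2, then exposed to DMSO-dissolved Tox21 10K compounds for 16 h at 37C. A LiveBLAzer B/G FRET substrate was loaded for 2 h at room temperature before fluorescence reading.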
Tags describe the fitted curve by direction and shape or compound fluorescence and quenching.

O=C1CCCCCCCCCCCC(=O)OCCO1
inconclusive: activation [1] 13.6% | ratio activity, negative = inhibition [2] -1.67% | Potency [3] 0.0692 µM [rising, full curve, poor fit] | activity change, negative = inhibition [4] -36.3% [fluorescent] | Potency [5] 49 µM [cytotoxic, partial curve] | Potency [6] 43.6 µM [activator]

O=CNc1ccccc1
inactive: Potency [1] | Potency [7] | Potency [8] | Potency [6]

O=C(O)c1ccccc1NCCc1ccccc1
inconclusive: activation [1] 15.7% | viability change, negative = cytotoxic [3] 21.9% | Potency [9] 4.73 µM [rising, full curve, poor fit]
inactive: Potency [2] | Potency [6]

O=c1[nH]nnc2ccccc12
inconclusive: activation [1] 5.93% | Potency [7] 5.49 µM [cytotoxic, single point] | ratio activity, negative = inhibition [2] -11.5% | Potency [3] 63.5 µM [rising, single point] | activation [6] 0.333%
inactive: Potency [4]

NCC(=O)O
inactive: Potency [1] | Potency [2] | Potency [4] | activation [6] -0.769% [at 15.8 µM]

C=C(C)CS(=O)(=O)O
inconclusive: activation [1] -9.55% | activity change, negative = cytotoxicity [10] -30.7% | Potency [11] 54.9 µM [rising, partial curve, poor fit]
inactive: Potency [2] | Potency [8] | Potency [6]

CN1CCN(C2=Nc3ccccc3Sc3ccc(Cl)cc32)CC1
inconclusive: Potency [3] 0.596 µM [rising, single point] | activation [12] 6.52% | Potency [6] 16.9 µM [activator]
inactive: Potency [1] | Potency [7]
